Among all 360,000 compounds or so, about 16,000 (4.4%) were called active. This list was built around the results that the source calls inconclusive (neither active nor inactive); the mix of calls is not that of the screen. Calls come from the whole dose curve; as a rule, active = well fitted inhibition curve with a large enough effect; inconclusive = small, poorly fitted or top-dose-only effect; inactive = no such curve, though single readings can be large or run the other way. Potencies beside an inconclusive call are fits to weak or partial responses and may not hold up.
molecular target: Bromodomain adjacent to zinc finger domain protein 2B (Homo sapiens) (UniProt Q9UIF8); assay: qHTS Assay for Inhibitors of BAZ2B; conditions: AlphaScreen BAZ2B-H3K14Ac peptide displacement; series mostly up to 114 µM; note: nearly all actives have a fitted effect of over 60% in size
How it was run: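 BAZ2B 50 nM plus b-H3(5-23)K14Ac 50 nM, PBS pH 7.4/0.01% Tween-20, 30 min RT; compound added (max 110 uM), 30 min RT; streptavidin donor/Ni-chelate acceptor beads 10 ug/mL final, 20 min dark; AlphaScreen read.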
Potency is the fitted concentration of half-maximal effect; tags give direction and shape of the fitted curve.

Chain of UniProt Q9UIF8 (Q9UIF8 whole entry, looked up, the tested form may be a part): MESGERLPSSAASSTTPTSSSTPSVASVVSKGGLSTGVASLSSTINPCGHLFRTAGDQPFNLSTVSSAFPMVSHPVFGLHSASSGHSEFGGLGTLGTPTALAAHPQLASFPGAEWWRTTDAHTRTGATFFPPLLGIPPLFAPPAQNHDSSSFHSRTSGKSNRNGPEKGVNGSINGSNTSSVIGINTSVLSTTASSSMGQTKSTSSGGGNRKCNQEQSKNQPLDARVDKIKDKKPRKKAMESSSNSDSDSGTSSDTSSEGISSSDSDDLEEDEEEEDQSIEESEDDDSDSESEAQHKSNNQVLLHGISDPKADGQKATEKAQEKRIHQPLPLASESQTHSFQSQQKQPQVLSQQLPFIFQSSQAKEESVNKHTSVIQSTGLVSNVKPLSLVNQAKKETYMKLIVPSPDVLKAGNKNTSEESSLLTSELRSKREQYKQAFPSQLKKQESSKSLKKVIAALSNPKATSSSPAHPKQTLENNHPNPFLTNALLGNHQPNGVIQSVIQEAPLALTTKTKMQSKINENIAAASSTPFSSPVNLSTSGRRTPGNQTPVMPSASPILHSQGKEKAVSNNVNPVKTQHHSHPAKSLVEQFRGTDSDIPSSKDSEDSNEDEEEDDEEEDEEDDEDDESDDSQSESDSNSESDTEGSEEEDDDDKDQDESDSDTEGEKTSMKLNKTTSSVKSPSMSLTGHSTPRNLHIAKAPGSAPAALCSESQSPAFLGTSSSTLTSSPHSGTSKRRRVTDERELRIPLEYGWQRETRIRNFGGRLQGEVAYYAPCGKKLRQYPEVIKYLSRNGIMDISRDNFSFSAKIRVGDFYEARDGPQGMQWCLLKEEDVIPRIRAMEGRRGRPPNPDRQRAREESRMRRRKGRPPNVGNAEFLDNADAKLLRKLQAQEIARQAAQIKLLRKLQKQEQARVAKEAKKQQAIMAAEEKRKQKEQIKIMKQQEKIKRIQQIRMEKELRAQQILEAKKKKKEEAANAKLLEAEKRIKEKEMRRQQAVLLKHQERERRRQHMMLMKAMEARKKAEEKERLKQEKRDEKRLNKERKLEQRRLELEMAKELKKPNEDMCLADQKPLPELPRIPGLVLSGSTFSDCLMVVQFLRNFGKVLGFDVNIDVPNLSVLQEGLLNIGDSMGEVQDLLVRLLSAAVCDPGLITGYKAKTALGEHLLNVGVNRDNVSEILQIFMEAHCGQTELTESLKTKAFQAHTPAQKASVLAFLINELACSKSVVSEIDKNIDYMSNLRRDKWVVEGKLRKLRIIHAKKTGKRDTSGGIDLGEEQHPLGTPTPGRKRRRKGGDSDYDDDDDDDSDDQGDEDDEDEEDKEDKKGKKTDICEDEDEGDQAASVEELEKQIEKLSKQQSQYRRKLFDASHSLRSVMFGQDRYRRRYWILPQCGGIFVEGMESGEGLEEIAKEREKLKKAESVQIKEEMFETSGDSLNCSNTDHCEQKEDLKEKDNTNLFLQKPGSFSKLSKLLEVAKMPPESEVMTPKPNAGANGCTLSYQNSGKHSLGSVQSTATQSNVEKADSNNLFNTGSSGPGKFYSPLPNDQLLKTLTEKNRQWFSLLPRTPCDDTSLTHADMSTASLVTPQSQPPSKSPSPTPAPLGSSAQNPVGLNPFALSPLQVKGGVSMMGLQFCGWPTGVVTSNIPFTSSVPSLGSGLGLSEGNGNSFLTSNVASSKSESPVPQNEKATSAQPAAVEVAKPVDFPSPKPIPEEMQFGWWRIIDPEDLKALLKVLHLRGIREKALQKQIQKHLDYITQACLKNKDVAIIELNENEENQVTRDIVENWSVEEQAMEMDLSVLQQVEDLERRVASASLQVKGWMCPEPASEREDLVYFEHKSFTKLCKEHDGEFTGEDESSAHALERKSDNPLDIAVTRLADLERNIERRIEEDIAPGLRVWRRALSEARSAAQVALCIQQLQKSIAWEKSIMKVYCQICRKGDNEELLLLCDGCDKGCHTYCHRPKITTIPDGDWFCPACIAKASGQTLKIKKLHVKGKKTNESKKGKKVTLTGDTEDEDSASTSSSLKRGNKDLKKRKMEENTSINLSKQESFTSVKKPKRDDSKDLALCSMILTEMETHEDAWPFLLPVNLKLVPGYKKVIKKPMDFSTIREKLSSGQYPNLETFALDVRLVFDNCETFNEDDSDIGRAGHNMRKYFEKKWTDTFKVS

| SMILES | Potency |
| --- | --- |
| CCCCN(C(=O)Cc1cccs1)c1nnc(-c2cccnc2)s1 | inconclusive: 89.1 µM [inhibitor, single point] |
| CCOC(=O)c1c(C)[nH]c(C)c1S(=O)(=O)N1CCCC(C(=O)N2CCN(c3cccc(Cl)c3)CC2)C1 (centres undefined) | inconclusive: 50.1 µM [inhibitor, partial curve, poor fit] |
| Cc1cnc(NC(=O)CSc2ncc(-c3ccccc3)n2Cc2ccco2)s1 | active: 22.4 µM |
| Cc1nn(C)c(C)c1/C=N/N=C1\CCC2C3CCc4cc(O)ccc4C3CCC12C (centres undefined) | inconclusive: 89.1 µM [inhibitor, single point] |
| Cc1ccc(C)n1-n1c(C)nc2sc(-c3ccccc3)cc2c1=O | inconclusive: 39.8 µM [inhibitor, partial curve] |
| COCCCn1c(SCC(=O)Nc2ccc(F)cc2)nc2c(sc3ccccc32)c1=O | inactive |
| COc1cc(CCC(=O)OCC(=O)c2ccc[nH]2)cc(OC)c1OC | inactive |
| CCn1c(C)nc2cc(S(=O)(=O)C(F)(F)C(F)C(F)(F)F)ccc21 (centres undefined) | inconclusive: 89.1 µM [inhibitor, single point] |
| Cc1cc(C(=O)COC(=O)c2ccc3c(c2)OCO3)c(C)n1CC1CCCO1 (centres undefined) | inconclusive: 70.8 µM [inhibitor, single point] |
| O=C(CCN1C(=O)/C(=C/c2ccccc2Cl)SC1=S)NN1CCOCC1 | inactive |
| Cc1ccc(C)c(Nc2c([N+](=O)[O-])cc(C(=O)N3CC(=O)Nc4ccccc43)cc2[N+](=O)[O-])c1 | active: 25.1 µM |
| COc1ccc(CNC(=O)c2cc3cccc4c3n2CC(C)S4)cc1OC (centres undefined) | inconclusive: 89.1 µM [inhibitor, single point] |
| COc1ccc(Cl)cc1NC(=O)CCN1CCN(C)CC1 | inconclusive: 89.1 µM [inhibitor, single point] |
| Cc1ccc2cc(C)c(SCC(=O)NCc3ccco3)nc2c1 | inconclusive: 79.4 µM [inhibitor, single point] |
| O=C(COc1ccc(Br)cc1)N/N=C1/SCC(=O)N1Cc1ccco1 | inconclusive: 89.1 µM [inhibitor, partial curve] |
| COc1ccc(NC(=O)c2cc(-c3cccnc3)nc3ccc(C)cc23)cc1OC | inconclusive: 89.1 µM [inhibitor, single point] |
| CCOC(=O)C1=C(C)OC(N)=C(C#N)C1c1cc(SCC)oc1C (centres undefined) | inconclusive: 70.8 µM [inhibitor, single point] |
| Cc1ccc(NC(=S)N/N=C/c2cccn2Cc2ccccc2F)cc1 | active: 28.2 µM |
| CCOc1cc(NC(=S)NCC2CCCO2)c(OCC)cc1NC(=O)C1CC1 (centres undefined) | inconclusive: 89.1 µM [inhibitor, single point] |
